# Data reported in the BET-seq Pho4 binding data (Le et al. 2018).
# The list shows a part of the results. The energies were worked out here from pooled read counts, against the library average; single values are noisy.
# Target: T1, Pho4 (S. cerevisiae) (UniProt P07270)
# T1 sequence: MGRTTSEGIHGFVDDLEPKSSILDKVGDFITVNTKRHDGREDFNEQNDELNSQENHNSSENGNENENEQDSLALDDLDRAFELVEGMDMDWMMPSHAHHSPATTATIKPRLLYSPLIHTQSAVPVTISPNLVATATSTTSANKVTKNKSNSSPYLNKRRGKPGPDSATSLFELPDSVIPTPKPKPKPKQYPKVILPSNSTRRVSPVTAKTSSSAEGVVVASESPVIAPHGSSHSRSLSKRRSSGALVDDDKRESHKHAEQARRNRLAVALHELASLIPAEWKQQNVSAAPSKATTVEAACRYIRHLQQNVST
# Assay: relative binding free energy (BET-seq); higher = weaker binding
# Details: reference: library average
row,Sequence,relative binding free energy [kcal/mol]
1,GCAGGCACGTGTGTGC,-0.08
2,GGCGGCACGTGGCAGG,-0.08
3,TACTGCACGTGAGGTG,0.32
4,CGTGGCACGTGAGGTT,0.19
5,TGTCACACGTGAAGTT,0.23
6,TGCGGCACGTGGATTT,0
7,GATGGCACGTGTGGGA,0.13
8,TTGGGCACGTGCTATG,-0.1
9,ATGGACACGTGATATA,0.21
10,AAGTACACGTGAGGAG,0.19
11,AATAGCACGTGATGTG,-0.03
12,AGATACACGTGAAGTT,0.33
13,GTATTCACGTGATAGT,0.27
14,ACTGGCACGTGAGTTG,0.08
15,AGAATCACGTGATTTG,0.27
16,ACGGGCACGTGTTGTC,0.08
17,TATACCACGTGTTTGA,-0.07
18,TTCGGCACGTGATGCG,-0.01
19,TTTCACACGTGTGGTC,0.03
20,TGCTGCACGTGAAAGG,0.2
21,CAGGACACGTGGTTGG,0
22,GGGGACACGTGGTTAC,0.09
23,TTGAGCACGTGGGTGG,-0.19

row,Sequence,relative binding free energy [kcal/mol]
1,TAAATCACGTGGGGTC,-0.04
2,TAAGGCACGTGATGCG,0
3,TAGGTCACGTGTCGGG,0.12
4,TTGCGCACGTGTGTGG,-0.15
5,GTATGCACGTGGTCTG,-0.06
6,ATTGTCACGTGGTTCT,-0.02
7,GTGAGCACGTGTTATA,-0.08
8,AATCGCACGTGTGTTG,-0.18
9,ATTTTCACGTGGGTCA,0.24
10,TAGTGCACGTGATGTA,0.09
11,GGGAGCACGTGTTAGA,-0.09
12,TATGACACGTGGGTTG,-0.06
13,ATTATCACGTGAGTGA,0.24
14,AGTCTCACGTGGTGAG,0.24
15,TTTGACACGTGGGATG,-0.07
16,TTTGTCACGTGTTCGC,0.07
17,TGAAGCACGTGAATTT,0.5
18,GTTAACACGTGGTCAG,0.05
19,TTCGTCACGTGTAGTT,0.1
20,ATATTCACGTGAAGTA,0.41
21,TGGTCCACGTGTATAT,-0.05
22,TATGTCACGTGTGTAT,0.15
23,TTTTCCACGTGGTGGA,-0.01

row,Sequence,relative binding free energy [kcal/mol]
1,ATAAACACGTGAGTTG,0.08
2,GTTGGCACGTGTCTTT,0.03
3,ATTAGCACGTGGAGTT,0.12
4,GTGGGCACGTGTGGTC,0
5,TAAGGCACGTGGCATG,-0.19
6,ATGAGCACGTGTATGA,-0.05
7,GAAGTCACGTGGCGGG,-0.1
8,AGAGACACGTGGGGTA,-0.15
9,CTAGGCACGTGTTGCG,-0.13
10,GTATTCACGTGTGCGC,0.24
11,CACGTCACGTGGGTTT,-0.08
12,TTTCTCACGTGTTCGT,0.27
13,TTGGTCACGTGTGCAC,0.12
14,AGTTGCACGTGATGTG,0.07
15,TTCATCACGTGGATTT,0.3
16,GAGTCCACGTGGGTCG,0.08
17,GTAAACACGTGGAGTA,0.14
18,TTGAGCACGTGGGAGA,-0.12
19,TTGCTCACGTGAGGGC,0.31
20,GTGTGCACGTGAGTTG,0.3
21,GGATACACGTGGTGTT,0
22,TGGTTCACGTGAAGTG,0.39
23,TATGGCACGTGGTTTA,-0.08

row,Sequence,relative binding free energy [kcal/mol]
1,GTGAGCACGTGAGTAT,-0.06
2,TAATTCACGTGTTTGG,0.21
3,ATCGGCACGTGTTGTC,0.09
4,TGTGACACGTGTGCTG,-0.1
5,TGTATCACGTGTCGAT,0.06
6,AAGGGCACGTGCATGG,-0.16
7,ACGTTCACGTGTATGT,0.21
8,GGAGGCACGTGTTGAT,-0.06
9,ATTTGCACGTGGCAGG,-0.12
10,TGGGGCACGTGTGCTC,-0.08
11,GTGTTCACGTGAGCGC,0.25
12,AGGGTCACGTGGGCGA,-0.01
13,TTGCTCACGTGGTAGT,0.25
14,TAATGCACGTGGAGTA,-0.12
15,TAGAACACGTGAAGTG,0.24
16,GTGAGCACGTGTTGCT,-0.13
17,TGTCACACGTGGGTGC,-0.09
18,GTTCACACGTGAGGTG,0.32
19,TTGGACACGTGGTTCA,0
20,AGTTTCACGTGGGTCA,0.09
21,GGAATCACGTGGACTG,0.42
22,GTATTCACGTGCGGGG,0.26
23,TTGTGCACGTGTTAAT,-0.03

row,Sequence,relative binding free energy [kcal/mol]
1,GGTCACACGTGGGGCT,0.12
2,TGTGCCACGTGGGCCG,-0.23
3,CGGTTCACGTGGTTGC,0.33
4,GTTGTCACGTGGAGAA,0.25
5,TGGTGCACGTGGCTAG,-0.16
6,GGGTACACGTGTCGTT,0.1
7,TGATCCACGTGTGGGC,0.06
8,AGTTACACGTGCGTGG,-0.07
9,GGCAGCACGTGATTTG,0.22
10,AGGGTCACGTGTAGTT,0.17
11,TTAGTCACGTGTGCGG,0.02
12,TTGTACACGTGGTCTA,-0.07
13,AAAAGCACGTGAAAGG,0.29
14,GTCTACACGTGCGGGG,0.04
15,TAGGTCACGTGGACGT,0.04
16,CTAGGCACGTGATGGT,0.02
17,ATCTTCACGTGCTGGG,0.21
18,TGCGTCACGTGTGTTC,0.02
19,CGGAGCACGTGGAGGT,-0.1
20,GTGGCCACGTGTAGCG,0.03
21,GATGACACGTGTGATG,0.23
22,AGTGCCACGTGGGGCT,-0.19
23,AGGGGCACGTGAAGAA,0.08
